Positions count from the first letter of the chain named. Recombinant human monoclonal antibodies (heavy:light variable regions). ELISA EC50 on the named antigen, from 10 µg/ml down; IC50 / IC90 against spike pseudovirus on 293T-ACE2 cells, 48 h; lower = stronger. Calls: IC50 above 1,000 ng/ml = non-neutralizing; EC50 above 2,000 ng/ml = non-binder. The source prints 1000 for neutralization that was not reached; it is given as >1000 ng/ml. A few antibodies were first reported in earlier work of the same group.
B1: C1179 (protein)
chain 1: QVQLVESGGGVVQPGRSLRLSCAASGFTFRNYAMHWVRQAPGKGLEWVAVLLYDGSTKYNADSVKGRFTISRDNSKNTLYLQMNSLRAEDTALYYCAREPHCTGGVCDAFDMWGQGTMVTVSS
chain 2: DIQMTQSPSSLSASVGDRVTITCRASQSIINYLNWYQQKPGKAPKLLIYAASSLLSGVPSSFSGSGSGTDFTLTISSLQPEDFATYYCQQTYSTPYTFGPGTKVDIK
B2: C1180 (protein)
chain 1: QVQLVESGGGVVQPGRSLRLSCAASGFTFSTYGMHWVRQAPGKGLEWVAAVYYDGSNKYYVDSVKGRFTISRDNSKNTLYLQMNSLRADDTAVYYCASHSAGYGDSYETFDIWGQGTMVTVSS
chain 2: EIVMTQSPATLPVSPGERATLSCRASQSVGTNLAWYQQKPGQAPRLLINGASTRATGIPGRFSGSGSGTDFTLTINSLQSEDSAVYYCQQYDNWPPFTFGQGTKLEIK
B3: C1181 (protein)
chain 1: EVQLVQSGGGLVQPGGSLRLSCAASGFTFSRDDMHWVRQRTGKGLEWVSGIGTNRDKYYEDSVKGRFTISRENGKNSLYLQMNSLRDGDTAVYYCARGVGGTVMDPYRFDYWGQGTLVTVSS
chain 2: DIQMTQSPSSLSASLGDRVTITCRASQRIGNYLNWYQQRPGKAPKLLIYAASSLQSGVPSRFSGSGSGTDFTLTISSLQPDDFATYYCQQSYSSPPWTFGQGTKVEIK
B4: C1182 (protein)
chain 1: QLQLQESGPGLVKPSETLSLTCTVSGDSISSSNYYWGWIRQPPGKGLEWIGSIYYTGSTYYNPSLKSRVTISVDTSKNQFSLNLSSVIAADTAVYYCARRRLPPSSYYSAMDVWGQGTTVTVSS
chain 2: QSALTQPASVSGSPGQSITISCTGTSSDVGGYNYVSWYQQYPGKAPKIMIYDVSNRPSGVSNRFSGSKSGNTASLTISGLQADDEADYYCSSYTSSSTEVFGGGTKLTVL
B5: C1183 (protein)
chain 1: EVQLVESGGGLVQPGGSLRLSCAASGIIVSRNYMSWVRQAPDKGLEWISVLYSGGSTFYADSVKGRFTISRHDSKNTLYLQMNSLRPEDTAVYYCARGEGYDIPFDPWGQGTLVTVSS
chain 2: QSALTQPPSASGSPGQSVTISCTGTSSDVGGNNYVSWYQQHPGKAPKLMIYEVGKRPSGVPDRFSGSKSGNTASLTVSGLQAEDEADYYCSSYAGSNNVVFGGGTKLTVL
B6: C1184 (protein)
chain 1: EVQLVESGGGLVQPGGSLRLSCAASGFTFSSYWMSWVRQAPGKGLEWVADIKQDGSEKYYVDSVKGRFTISRDNAKNSLYLQMNSLRAEDTAVYYCARDAYYYGDYDYWGQGTLVTVSS
chain 2: NFMLTQPHSVSESPGKTVTISCTGSSGSIASNYVQWYQQRPGSAPTTVIYEDNQRPSGVPDRFSGSIDSSSNSASLTISGLKTEDEADYYCQSYDSNKKVFGGGTKLTVL
B7: C1185 (protein)
chain 1: QVQLQESGPGLVQPSETLSLTCIVSGGSISDYYWSWIRQPPGKGLEWIGYMYYSGSTNYNPSLKSRVTLSLNASKKQISLKLTSVTAADTAVYYCARHKWLRGELDYWGQGTLVTVSS
chain 2: B6 chain 2 with S26G, S43R, Y50F, R55S, S71T, Y94F, S96H, N97S, K98N, K99L
B8: C2421 (protein)
chain 1: EVQLVESGGNLVQPGGSLRLSCAASGFTFASYSMNWVRQAPGKGLEWVSYISRSSSTIYYSDSVKGRFTISRDNAKNSLYLQMNSLRVEDTAVYYCAGGILGLGSLHYYYGLDVWGQGTTVTVSS
chain 2: QSALTQTASVSGSPGQSITISCTGTSSDVGSYNLVSWYQQHPGKAPKLMIYDVSERPSGVSNRFSGSKSGNTASLTISGLQAEDEADYYCSSYAGSSKMIFGGGTKLTVL
B9: C1248 (protein)
chain 1: QVQLQESGPGLVKPSETLSLTCTVSGGSFSSYFWNWIRQPPGKGLEWIGHIYYSGTTNYNPSLKSRVTISVDTSKTHFSLRLSSVTAADTAVYYCARQGWLRGNFDLWGRGTLVTVSS
chain 2: NFMLTQPHSVSESPGKTVTISCTGSSGSIASNYVQWYQQRPGSAPTTVIYEDTQRPSGVPDRFSGSIDSSSNSASLTISGLKTEDEADYYCQSYDTTFSVVFGGGTKLTVL
B10: C1249 (protein)
chain 1: EVQLVESGGGLVQPGGSLRLSCAASEIIVSSNYMIWVRQAPGKGLEWVSVIYSGGSTFYADSVKGRFTISRHNSKNTLFLQMNSLRPEDSAVYYCARALPFFGDLGYFDFWGRGTLVTVSS
chain 2: DIQMTQSPSSLSASVGDRVTITCRASQSIINYLNWYQQKPGEAPKLLIYAASSLHSGVPSRFSGSGSGTDFTLTISSLQPADFATYFCQQTYSTPGTTFGQGTKLEIK
B11: C1255 (protein)
chain 1: QVQLVQSGAEVKKPGASVKVSCKASGYTFTNYYMHWVRQAPGQGLEWMGIINPSGGSTTYAQKVQGRVTLTRDTSTSTVYMELNSLRSEDTAVYYCARDENFIPARGAMDVWGQGTTVTVSS
chain 2: not shown
B12: C1257 (protein)
chain 1: QVQLVQSGAEVKKPGASVKVSCKASGYTFTTYYIHWVRQAPGQGLEWMGLINPDAASTTYAQKFQGRVTMTTDTSTSTVYMELSSLRSEDTAVYFCARDEVLIPAARALDYWGQGSLVTVSS
chain 2: EIVLTQSPATLSLSPGERATLSCRASQSVSSYLAWYQQKPGQAPRLLIYDASNRATGIPGRFSGSGSGTEFTLTISSLEPEDFAVYYCQQRSNWPRIFTFGPGTKVDIK
B13: C1258 (protein)
chain 1: QVQLVQSGAEVKKPGASVKVSCKASTYTFSNYYIHWVRQAPGQGLEWMGVINPSAGSIAYAQKFQGRVTMTSDTSTSTVYMELSSLRSEDTALYFCARDFALIPASMGLEYWGQGTLVTVSS
chain 2: IQMTQSPSSLSASVGDRVTITCRASQGIRNDLGWYQQKPGKAPKLLIYAASSLQSGVPSRFSGSGSGTDFTLTISSLQPEDFATYYCLQDYNYPWTFGQGTKVEIK
B14: C1260 (protein)
chain 1: QVQLQESGPGLVKPSGTLSLTCAVSGGSITSVHWWSWVRQSPGKGLEWIGEIYHSGNSNYNPSLKSRVTISVDKSKNQFSLKLNSVTAADTAVYYCARDREDGMGLWYFDLWGRGTLVTVSS
chain 2: QSVLTQPPSASGTPGQRVTISCSGSSSNIGSEYVYWYQQLPGTAPKLLIYRNNQRPSGVPDRFSGSKSGTSASLAISGLRSEDEADYYCAAWDDSLSGRVFGGGTKLTVL
B15: C1262 (protein)
chain 1: QVQLVESGGGVVQPGRSLRLSCAASGFTPTSYAMHWVRQAPGKGLEHLAFISYDGSNKYYADSVKGRFTISRDNSKNTLYLQMSSLRAEDTALYYCAITFPRGELTGILHYWGQGTLVTVSS
chain 2: SYELTQPPSVSVAPGQTARITCGGDNIGSKNVHWYQQKPGQAPVLVVYDDNDRPSGIPERFSGSNSGNTATLTISRVEAGDEADYYCQVWDSNSDHFWVFGGGTKLTVL
B16: C1425 (protein)
chain 1: EVQLVESGGGLVQPGGSLRLSCAASGITVSSNYMNWVRQAPGKGLEWISVIYSGGSTFYADSVKGRFTISRHNSKNTLYLQMNSLRAEDTAVYYCARFGSYGRRLYDSWGQGTLVTVSS
chain 2: DIQMTQSPSSLSASVGDRVTITCQASQDISNYLNWYQQKPGKAPKLLIFDASNLETGVPSRFSGSGSGTDFTFTISSLQPEDIATYYCQQYDNLPVTFGGGTKVEIK
B17: C1427 (protein)
chain 1: QVQLQESGPGLVKPSETLSLTCTVSGGSINSYLWSWIRQPPGMGLAWIGYISYTGSTNYSPSLKSRVSISIDTSKNQFSLKLNSVTAADTAVYYCARHRLGLILGSDYWGQGKLVTVSS
chain 2: B6 chain 2 with N97G, K98T, K99W

Biological target: SARS-CoV-2 Wuhan-Hu-1 spike pseudovirus
Test: pseudovirus neutralization IC50; higher = weaker neutralization
Method: (§1)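 Single-round luciferase reporter pseudovirus mixed with antibody dilutions and put on 293T-ACE2 cells for 48 h; signal relative to no-antibody wells, four-parameter fit.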

Binder	pseudovirus neutralization IC50 [µg/mL]
B1	0.014
B2	0.00673
B3	0.369
B4	> 1
B5	0.0142
B6	0.158
B7	0.105
B8	> 1
B9	0.0854
B10	0.00797
B11	> 1
B12	> 1
B13	> 1
B14	0.0246
B15	0.362
B16	0.00659
B17	0.0849

Biological target: SARS-CoV-2 Wuhan-Hu-1 spike pseudovirus
Test: pseudovirus neutralization IC90; higher = weaker neutralization
Method: as §1

Binder	pseudovirus neutralization IC90 [µg/mL]
B1	0.028
B2	0.0427
B3	> 1
B4	> 1
B5	0.0819
B6	> 1
B7	0.769
B8	> 1
B9	0.542
B10	0.0226
B11	> 1
B12	> 1
B13	> 1
B14	0.14
B15	> 1
B16	0.0295
B17	0.535

Biological target: SARS-CoV-2 Wuhan-Hu-1 spike receptor-binding domain
Test: ELISA binding EC50; higher = weaker binding; ELISA of recombinant human antibody on coated antigen, from 10 µg/ml in fourfold dilutions; four-parameter fit.

Binder	ELISA binding EC50 [µg/mL]
B1	0.0027
B2	0.00237
B3	0.00227
B4	0.00595
B5	0.00249
B6	0.00354
B7	0.00289
B8	0.00428
B9	0.0037
B10	0.00258
B11	0.0757
B12	0.00303
B13	0.00328
B14	0.00269
B15	0.00246
B16	0.002
B17	0.00561
